Results published in the supplement of paper PMC11417369.
± gives the standard deviation of the averaged measurements. This is one part of the list.

Each sequence was assayed on PfAP2-LT AP2 domain (GST-tagged) (assay: gcPBM binding intensity (ln(normalized median fluorescence intensity)); higher = stronger DNA binding).
Summary of the method: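 Using an Agilent 4 × 180k array, primer-extended double-stranded 36-bp intergenic genomic probes and negative controls were exposed for 1 h to GST-fused P. falciparum DNA-binding domains expressed in E. coli. Binding was carried out in 1× PBS with 1% milk, 0.2 mg/ml BSA, 0.5% salmon testes DNA and 0.03% Triton X-100, and protein was detected with Alexa488 anti-GST antibody and a 488 nm scan. Binding intensity is the highest Masliner-normalised natural-log median intensity across replicate spots of either probe orientation.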

Sequence | gcPBM binding intensity (ln)
GTAAATCGACACATACGTACATACATTTATATATAT [XGTACX_site3143] | 9.12 ± 0.39
ACATTATATTTGGACTGTACTAATATATTGTTATAT [XGTACX_site5573] | 8.91 ± 0.42
TATACATATATATATTGTACATATTATATATATATA [XGTACX_site3286] | 8.69 ± 0.37
ATATATATATATATATGTACATATTGTATCTTATAC [XGTACX_site5466] | 9.72 ± 0.16
TATCTTTTTATTTTTTATTTTTTTTTTATAATTTAC [XGTACX_negctrl_site414] | 8.54 ± 0.47
CATAAATCAGCCATAACACACATACATATATACATA [CACACA_site8025] | 9.28 ± 0.42
ACACATATGTCTTCATGTACATAATATATAAATCTT [XGTACX_site3438] | 8.77 ± 0.4
TCATTGAAAATTGTTGCACACATAATAATTAAATAT [CACACA_site8554] | 8.81 ± 0.33
TCTTGTTTATCAACAGCACACACAACAACAACAACA [CACACA_site8046] | 9.29 ± 0.4
TAAAGGTAGATATATTGTACATACACACCTATATAA [XGTACX_site6865] | 8.86 ± 0.4
TGTTAAAAAATGGATGCACACATTAAATAAAAAGTA [CACACA_site1660] | 8.99 ± 0.44
TATATATATACAGTTGCATGTTGTGTTTAAAATTTT [TGCATGCA_site816] | 8.87 ± 0.4
TTATATTTAGTATATGCACACTTTATGTTTGTTATT [CACACA_site5163] | 9.1 ± 0.42
TATAAATACGAACACACACACCTTATAATTACTACT [CACACA_site7827] | 9.76 ± 0.11
AAAAACCATTGGCACACACACATAATATATAATATA [CACACA_site4903] | 9.77 ± 0.41
AAGAAAGGTTAAACATGTACATAAATATTTTACATA [XGTACX_site5024] | 8.71 ± 0.52
ATACCTAAAAAATATACACACATATATATAAATATA [CACACA_site2580] | 9.05 ± 0.42
CATCAATGCTAATTATGTACTTACATAAATAACCCT [XGTACX_site968] | 8.8 ± 0.37
ATGTTAATTAATGAGGTGCATTGAATATTTCAATAA | 8.56 ± 0.46
TGTATTATCTCTTATGAACACACATTTTTATTTTCA [CACACA_site9107] | 8.9 ± 0.45
AATTAAATGTTTCTAAGATATACGACCAATGTATTT [CACACA_negctrl_site1694] | 8.54 ± 0.42
AATTAATGGGTACATACACACATATATACATACATA [CACACA_site742] | 9.16 ± 0.44
TTTATATTTTTTTTTGCACACTTTAAAAAAATATAT [CACACA_site1146] | 8.71 ± 0.42

Sequence | gcPBM binding intensity (ln)
TATATATTACATAAAACACACAAAAAAAAAATTAAA [CACACA_site3882] | 8.79 ± 0.58
AAATAAATTGAAGATACATGCATATTTTTTTTTTAT [TGCATGCA_site686] | 8.57 ± 0.39
GAATATTTATGATGAACTATTAATTAATTTTACATA [GTGCAC_negctrl_site353] | 8.35 ± 0.47
ATGTAGAGTAATAGTTGTACAAGGTGTATATCTCAT [XGTACX_site6370] | 9.29 ± 0.57
TGGTGAAAAATATAAATATAAATAAATATATATATA [CACACA_negctrl_site1725] | 8.68 ± 0.45
AAAAAAAAAAACTTTGCATGTAATAATAAAAAAAAA [TGCATGCA_site81] | 8.4 ± 0.5
AGAAGAAAACAAAACACACACATATATCTTAATATA [CACACA_site2231] | 9.39 ± 0.41
ATGATCTGTTTGTTTGTGCACATATATATATATTAA | 9.16 ± 0.47
AGAGTTAAACGATATATATAAATATATATATATATA [GTGCAC_negctrl_site316] | 9.38 ± 0.3
AAAAAAAAAAACGACAGTACAATTATAATTTATATT [XGTACX_site2365] | 8.73 ± 0.51
AGATCATAATATTATACACACATTAGATATAGGTAA [CACACA_site6809] | 9.02 ± 0.42
ATGTCTTAAAAATTAAAACACACGTTCACTTTCATA [CACACA_site3385] | 8.97 ± 0.4
AAAAGGAAGATATATACACACATACAAATATTTATA [CACACA_site7093] | 9.14 ± 0.35
ATAAATAAATAAAAGCGTACATATATATAAAATATA [XGTACX_site8107] | 8.76 ± 0.55
TATCACCCACCATGAAGTACATATTACCATTTGATG [XGTACX_site845] | 9.01 ± 0.4
TTATACTAAATGAACACACACACATATATATATATA [CACACA_site99] | 9.8 ± 0.18
AAATGTAATTTGTCTTTTATTTATATTTGACATGAT [TGCATGCA_negctrl_site520] | 8.62 ± 0.43
ATATTAATGATATATACACACATAAGTATTGTATAT [CACACA_site7844] | 8.98 ± 0.34
AAAAATTATAAAAAACAAATATTAAATAATTATTAA [GTGCAC_negctrl_site125] | 8.27 ± 0.59
TTGATGGGAAAAAACTTTTTTTTCTTTTTTTCTTTC [CACACA_negctrl_site328] | 8.32 ± 0.68
TTTTTTTTTTTTTTTTTTTTTTTGCTCAGTGTGGTA [CACACA_negctrl_site29] | 8.18 ± 0.64
GATATATGTATAATAACGCACACTACAAAAATAAAA [CACACA_site2100] | 9.09 ± 0.42
